# Data as given in PubChem BioAssay AID1159614 (National Center for Advancing Translational Sciences (NCATS), 2016).
# Screen size: about 45,000 compounds; about 65 (0.1%) were called active. Calls come from the whole dose curve; as a rule, active = well fitted activation curve with a large enough effect; inconclusive = small, poorly fitted or top-dose-only effect; inactive = no such curve, though single readings can be large or run the other way. This is one part of the list.
# Biological target: Galactocerebrosidase (Homo sapiens) (UniProt P54803)
# UniProt P54803, sequence (P54803 whole entry, looked up): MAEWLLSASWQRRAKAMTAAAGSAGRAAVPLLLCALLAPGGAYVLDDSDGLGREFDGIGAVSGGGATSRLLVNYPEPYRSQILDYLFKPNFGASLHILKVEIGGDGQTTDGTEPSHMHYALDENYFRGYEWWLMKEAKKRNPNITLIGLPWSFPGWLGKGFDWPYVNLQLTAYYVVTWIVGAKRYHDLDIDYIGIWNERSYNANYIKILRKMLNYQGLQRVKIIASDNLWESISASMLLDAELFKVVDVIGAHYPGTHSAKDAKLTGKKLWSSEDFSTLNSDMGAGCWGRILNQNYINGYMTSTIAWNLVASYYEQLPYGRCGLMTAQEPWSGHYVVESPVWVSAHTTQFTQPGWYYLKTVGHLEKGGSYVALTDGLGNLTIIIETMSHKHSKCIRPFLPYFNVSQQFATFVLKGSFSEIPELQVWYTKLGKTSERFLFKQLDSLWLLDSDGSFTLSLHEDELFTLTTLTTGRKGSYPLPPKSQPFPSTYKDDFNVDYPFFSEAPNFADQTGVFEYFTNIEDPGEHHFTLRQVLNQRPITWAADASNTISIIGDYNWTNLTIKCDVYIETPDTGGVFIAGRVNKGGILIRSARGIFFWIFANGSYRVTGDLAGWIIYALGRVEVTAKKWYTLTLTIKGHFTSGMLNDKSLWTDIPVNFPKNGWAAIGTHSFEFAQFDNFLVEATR
# Test: A Novel Cell-Based Assay to Identify Small Molecules for B -Galactocerebrosidase; note: 0% is about no effect; nearly all actives have a fitted effect of over 65% in size
# Details: 145M-Twi-hGALC-G270D cells (Twitcher mouse brain line with human GALC G270D), HMU-beta-Gal fluorescence, 48 h; series mostly up to 57.5 µM; activation: at the top concentration
# How it was run: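 Fluorogenic HMU-b-Gal hydrolysis (0.1 mM final, pH 5.2 citrate-phosphate with 1 mg/mL sodium taurocholate; carbonate stop buffer) measures mutant GALC activity after compound treatment of live 145M-Twi Twitcher brain cells stably carrying human GALC-G270D, with wild-type GALC line alongside; activation sought.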
row,Compound,activation
1,CCN(c1ccc(OC)cc1)S(=O)(=O)c1c(C(=O)N2CCCCCC2)c(C)n(C)c1C,inactive: -13.3%
2,CCOc1ccc(OCC)c(NC(=O)c2cc(C)nc3c2c(C)nn3-c2cccc(Cl)c2C)c1,inactive: -12.6%
3,CCOCCCNC(=O)c1cnc2sc(N3CCCCCC3)nn2c1=O,inactive: -0.548%
4,CCc1ccc(NC(=O)CSC2=Nc3ccccc3C3=NC(CCC(=O)NCc4ccccc4OC)C(=O)N23)cc1 (stereo not given),inactive: -12.9%
5,CCOc1ccc(NC(=O)Cn2c(=O)n(CCc3ccccc3)c(=O)c3c4c(sc32)CN(C(C)=O)CC4)cc1,inactive: -16.3%
6,Cc1nn(-c2ccccc2)c(OC(=O)c2ccc(Br)cc2)c1S(=O)(=O)c1ccccc1,inactive: 2.1%
7,O=C(CCc1nc(-c2ccccc2F)no1)Nc1cccc(C(F)(F)F)c1,inactive: 0.827%
8,Cc1ccc(CC(=O)N(Cc2nc(-c3ccc(C)cc3)no2)C(C)C)cc1,inactive: -37.2%
9,Cc1ccc(C)c(N2CCN(C(=O)c3cccc(-n4c(C)nc5cccnc54)c3)CC2)c1,inactive: 3%
10,CCn1c(CN2CCN(c3cccc(Cl)c3)CC2)nc2c1c(=O)[nH]c(=O)n2C,inactive: -3.82%
11,COCCCNc1ncnc2c1c(-c1ccccc1)cn2-c1ccc(C)c(Cl)c1,inactive: -10.3%
12,Cc1cc2nn(-c3ccc(Cl)cc3)nc2cc1NC(=O)C(C)C,inactive: 7.18%
13,COc1ccc2c(c1)c1c(c(=O)n(-c3ccccc3C)c(=O)n1Cc1ccccc1C)n2C,inactive: -18.1%
14,COc1ccc(OC)c(NC(=O)CN2C(=O)CC(c3ccco3)Sc3ccccc32)c1 (stereo not given),inactive: -14.5%
15,OC1(c2ccc(Cl)c(C(F)(F)F)c2)CCN(CCCC(c2ccc(F)cc2)c2ccc(F)cc2)CC1,inactive: -16%
16,O=C(COc1ccc(Cl)cc1)Nc1cc(-c2ccccc2)no1,inactive: -20.9%
17,Cn1c(=O)c2sccc2n2c(CCCC(=O)Nc3ccc(F)cc3F)nnc12,inactive: -16%
18,Cn1nc(C(=O)N2CCN(c3ccccc3)CC2)c2c1-c1ccccc1SC2,inactive: -6.19%
19,O=C(c1ccc2c(c1)OCO2)c1cn(Cc2ccc(F)cc2)c2ccccc2c1=O,inactive: -13.8%
20,CCCCN(CC)C(=O)Cn1c(=O)n(-c2ccc(OCC)cc2)c(=O)c2c3c(sc21)CCC3,inactive: -16.4%
21,CCCOC(=O)c1c(NC(=O)c2nc3ncccn3n2)sc(C(=O)OCC)c1C,inactive: -15.8%
22,CC(=O)c1cccc(-n2c(=O)c3c4c(sc3n(Cc3ccccc3Cl)c2=O)CN(C(C)=O)CC4)c1,inactive: -16.8%
23,COc1cc(OC)c(C2C=C(C(=O)O)Nc3ncnn32)cc1OC (stereo not given),inactive: -3.43%
24,Cc1ccc(C2CCN(C(=O)c3cnn(-c4ccccc4Cl)c3C3CCN(C(=O)OC(C)(C)C)CC3)C2)cc1 (stereo not given),inactive: -4.09%

row,Compound,activation
1,Cc1c(F)cccc1NC(=O)C1CCCN1S(=O)(=O)c1ccc(F)cc1 (stereo not given),inactive: -15.8%
2,COc1ccccc1CNC(=O)c1cn(C)c2ccc(S(=O)(=O)N3CCC(C)CC3)cc2c1=O,inactive: -19.4%
3,Cc1ccc(C(=O)Nc2cccc(C(=O)OCc3cc(=O)n4c5c(sc4n3)CCCC5)c2)cc1,inactive: -9.25%
4,Cc1ccc(NC(=O)C2CCCN(S(=O)(=O)c3cccc4cccnc34)C2)cc1Cl (stereo not given),inactive: -9%
5,Cc1ccc2[nH]cc(C(c3ccccc3)c3cccs3)c2c1 (stereo not given),inactive: -19.6%
6,COc1cc(OC)c(NC(=O)c2ccc3nc(C(C)C)oc3c2)cc1Cl,inactive: -7.03%
7,CCOC(=O)c1c(C)n(-c2ccccc2)c2ccc(OC(=O)c3ccccc3Cl)cc12,inactive: -12.7%
8,CC(C)COc1ccc(C(=O)NCC2OCCc3ccccc32)cc1 (stereo not given),inactive: -9.4%
9,COc1ccccc1N1CCN(C(=O)C2CCN(S(=O)(=O)c3cccc4nonc34)CC2)CC1,inactive: -3.25%
10,Nc1ncc(S(=O)(=O)NCc2ccccc2F)cn1,inactive: 4.18%
11,Cc1ccc(Nc2cc(C(=O)NC3CCCC3)c3ccccc3n2)cc1C,inactive: -6.36%
12,NC(=O)c1c(NC(=O)c2noc3c2CCCC3)sc2c1CCCC2,inactive: -24.2%
13,CCOc1ccc(CCNC(=O)C2CCCN(c3nnc(C)c4c(C)n(-c5ccccc5)nc34)C2)cc1 (stereo not given),inactive: -14.3%
14,CCOC(=O)Cn1nc(C)c(NC(=O)COc2ccc(OC)cc2)c1C,inactive: -14.9%
15,Cc1ccccc1C(=O)Nc1ccc(NC(=O)c2cccs2)cc1,inactive: -12.6%
16,CCn1c2ccccc2c2cc(NC(=O)COc3cc(C)c(Cl)c(C)c3)ccc21,inactive: -8.42%
17,COc1ccc2oc(=O)c(C(=O)NCCc3c(C)[nH]c4c(C)cccc34)cc2c1,inactive: -4.63%
18,CCOc1cc2[nH]c(=O)n(CCC(=O)N3CCN(c4cccc(Cl)c4)CC3)c(=O)c2cc1OCC,inactive: -17%
19,COC(=O)c1cc(NC(=O)CCS(=O)(=O)c2cc(Br)cc3c2N(C(=O)C2CC2)CC3)cc(C(=O)OC)c1,inactive: -9.56%
20,CC(=O)N1CCCc2cc(S(=O)(=O)N3CCC(C(=O)NCc4ccc(F)cc4)CC3)ccc21,inactive: -15.3%
21,CC1(C)O[C@@H]2C[C@H]3[C@@H]4CCC5=CC(=O)C=C[C@]5(C)[C@@]4(F)[C@@H](O)C[C@]3(C)[C@]2(C(=O)CO)O1,inactive: -7.85%
22,COc1ccc(C(=O)NCC(c2ccco2)S(=O)(=O)c2ccccc2)cc1 (stereo not given),inactive: -9.15%
23,CCOC(=O)c1c(C)oc2nc(C)nc(N3CCN(c4ccc(C)cc4C)CC3)c12,inactive: -12.9%
24,Cc1nc(-c2ccc(F)cc2)sc1CCNC(=O)c1ccccc1,inactive: -6.18%

row,Compound,activation
1,Cc1cccc(NC(=O)C2CCC(CNS(=O)(=O)c3ccc4c(c3)CCCC(=O)N4)CC2)c1C (stereo not given),inactive: -15%
2,CCN1CCOC(=O)C1CC(=O)Nc1ccccc1C(F)(F)F (stereo not given),inactive: 18.5%
3,CCCN(C(=O)C1CCN(S(=O)(=O)c2c(C)noc2/C=C/c2ccc(C)cc2)CC1)c1ccccc1F,inactive: 1.89%
4,CCCN(Cc1cc2cc(C)ccc2[nH]c1=O)C(=O)c1cccc(Cl)c1,inactive: -12.3%
5,COC(=O)c1cc(C)nc2c1c(=O)nc(SCc1cc(C)ccc1C)n2C1CC1,inactive: -13.6%
6,COc1cc(OC)c(NC(=O)COc2ccccc2-c2nnc(-c3ccccc3)o2)cc1Cl,inactive: 16.6%
7,CC(=O)c1ccc(NC(=O)c2cccc(NC(=O)N3CCSc4ncccc43)c2)cc1,inactive: -5.43%
8,CCOCCCNC(=O)c1c(NC(=O)Cc2coc3c(C)c(C)ccc23)sc2c1CCC2,inactive: -10.9%
9,Cc1cc(C)cc(N(C)S(=O)(=O)c2nnc(NC(=O)COc3ccc(C)c(C)c3)s2)c1,inactive: -8.78%
10,CCc1ccccc1Nc1nn2c(=O)c3ccc(C(=O)NCCc4ccccc4)cc3nc2s1,inactive: -22.6%
11,Cc1c(Cl)cccc1NC(=O)CN1C(=O)c2ccccc2Sc2ncccc21,inactive: -8.19%
12,Cc1cccc(C(=O)NC2(C(F)(F)F)N=C(c3ccccc3)N(Cc3ccccc3)C2=O)c1 (stereo not given),inactive: -7.03%
13,CCCCCCCCCCCCCCCCCCO,inactive: -16.9%
14,COc1ccc(-n2c(SCc3nc(-c4ccc(C)cc4)no3)nnc2-c2ccncc2)cc1,inactive: -14.8%
15,CCOc1ccc2c(c1)c(=O)c(S(=O)(=O)c1ccc(C)cc1)cn2CC(=O)Nc1ccc(C)cc1,inactive: -5.71%
16,COCCCN1CCc2nc(SCC(=O)Nc3ccc(C)c(Cl)c3)[nH]c(=O)c2C1,inactive: -12%
17,CC(=O)N1CCc2c(sc3c2c(=O)n(-c2ccccc2Cl)c(=O)n3C)C1,inactive: -13.7%
18,Cc1ccc(-c2c(CN3CCN(c4cc(Cl)ccc4C)CC3)csc2C)cc1,inactive: -7.05%
19,O=C(CSc1nc2ccccc2n1CC(=O)Nc1ccc(F)cc1F)Nc1ccc(F)cc1,inactive: -12.2%
20,CCn1cc(C(=O)N2CCN(c3ccccc3)CC2)c(=O)c2cc(S(=O)(=O)N(C)C3CCCCC3)ccc21,inactive: -9.94%
21,CC(=O)CSc1nc(-c2ccccc2)[nH]c1S(=O)(=O)c1ccc(C)cc1,inactive: -5.78%
22,CCOc1ccc(Sc2cc(C(=O)NCc3ccc(F)cc3)c3ccccc3n2)cc1,inactive: -3.09%
23,Cc1ccc2c(CNCc3cccs3)c(C(=O)O)n(Cc3ccc(F)cc3)c2c1,inactive: -18.6%
24,Cc1ccc2c(=O)cc(C(=O)Nc3sc4c(c3C(=O)NCc3ccco3)CCCC4)oc2c1C,inactive: -11.9%

row,Compound,activation
1,CCc1ccc(CNC(=O)c2nn(-c3ccc(C)c(C)c3)nc2CO)cc1,inactive: 26.9%
2,CCC(C)NC(=O)Cn1ncc2c(C)n(Cc3ccc(F)cc3)c(C)c2c1=O (stereo not given),inactive: -7.31%
3,Cc1cc(=O)[nH]c2nnc(SCC(=O)Nc3cc(C(F)(F)F)ccc3Cl)n12,inactive: -8.04%
4,COC(=O)c1ccc(Cn2c(=O)cc(C)c3c(C)nn(C)c32)cc1,inactive: -0.623%
5,O=C(CN1C(=O)CCSc2ccc(S(=O)(=O)N3CCCC3)cc21)Nc1cccc(Cl)c1,inactive: -14.3%
6,Cc1cnc(NC(=O)C2=C(O)c3ccccc3S(=O)(=O)N2C)s1,inactive: -10.1%
7,CCOc1ccc(NC(=O)Nc2c(C)n(C)n(-c3ccccc3)c2=O)cc1,inactive: -9.15%
8,Cn1ncc2c(NCc3cccc(Cl)c3)ncnc21,inactive: -7.92%
9,COc1cc(Cl)c(C)cc1NC(=O)CSc1cc(=O)n(C)c2cc(Cl)ccc12,inactive: -25.5%
10,CCN(CC)S(=O)(=O)c1ccc2c(c1)N(CC(=O)NCc1ccccc1)C(=O)CS2,inactive: -1.74%
11,CN(C)c1ccc(C(CNC(=O)COc2ccccc2)N2CCOCC2)cc1 (stereo not given),inactive: -17.8%
12,NC(=O)CSc1ncc2c(n1)-c1ccccc1N(Cc1ccccc1)S2(=O)=O,inactive: -9.19%
13,COc1ccc(NC(=O)c2cccc(N3CCCS3(=O)=O)c2)cc1,inactive: 0.647%
14,Cc1c(Cl)cccc1NC(=O)N1CCN(Cc2cc(=O)n3nc(-c4ccccc4F)sc3n2)CC1,inactive: -8.58%
15,Cc1nn(C)c2c1c(-c1ccccc1)cc(=O)n2Cc1ccccc1F,inactive: -11.7%
16,Cc1ccc(-c2noc(CCC(=O)Nc3ccc(F)cc3Cl)n2)cc1,inactive: -30.7%
17,COc1cccc(CNC(=O)Cn2c(=O)c3cccn3c3ccc(F)cc32)c1OC,inactive: 3.67%
18,Cc1ccccc1CNC(=O)C(=O)NCC(c1ccco1)S(=O)(=O)c1ccc(F)cc1 (stereo not given),inactive: -5.39%
19,COc1ccc(NS(=O)(=O)c2ccc3c(c2)CCN3C(=O)C2CC2)cc1OC,inactive: -22.3%
20,Cc1cc(C)c2c(=O)cc(C(=O)NCCc3ccc(S(N)(=O)=O)cc3)oc2c1,inactive: -15.6%
21,COC(=O)c1sccc1S(=O)(=O)N(CC(=O)Nc1ccc(C)cc1)c1ccccc1,inactive: -9.16%
22,COc1cccc2cc(-c3nnc(Nc4ccccc4C)s3)c(=O)oc12,inactive: -11%
23,COc1ccccc1N1CCN(C(=O)CCn2cnc3onc(-c4ccc(F)cc4)c3c2=O)CC1,inactive: -19.1%
